# Laboratory results taken from PMC4336329 (PLoS ONE, 2015).
# Hit rate of the full screen: of about 310,000 compounds, about 2,200 (0.71%) showed an effect of 50% or more. The effect is printed as a negative number. Some of the results follow.
# Biological target: human ether-à-go-go-related gene (hERG) potassium channel (human, UniProt Q12809)
# Assay: primary screen, population patch clamp on CHO cells stably expressing hERG
# Sequence of human ether-à-go-go-related gene (hERG) potassium channel (Q12809 whole entry, looked up): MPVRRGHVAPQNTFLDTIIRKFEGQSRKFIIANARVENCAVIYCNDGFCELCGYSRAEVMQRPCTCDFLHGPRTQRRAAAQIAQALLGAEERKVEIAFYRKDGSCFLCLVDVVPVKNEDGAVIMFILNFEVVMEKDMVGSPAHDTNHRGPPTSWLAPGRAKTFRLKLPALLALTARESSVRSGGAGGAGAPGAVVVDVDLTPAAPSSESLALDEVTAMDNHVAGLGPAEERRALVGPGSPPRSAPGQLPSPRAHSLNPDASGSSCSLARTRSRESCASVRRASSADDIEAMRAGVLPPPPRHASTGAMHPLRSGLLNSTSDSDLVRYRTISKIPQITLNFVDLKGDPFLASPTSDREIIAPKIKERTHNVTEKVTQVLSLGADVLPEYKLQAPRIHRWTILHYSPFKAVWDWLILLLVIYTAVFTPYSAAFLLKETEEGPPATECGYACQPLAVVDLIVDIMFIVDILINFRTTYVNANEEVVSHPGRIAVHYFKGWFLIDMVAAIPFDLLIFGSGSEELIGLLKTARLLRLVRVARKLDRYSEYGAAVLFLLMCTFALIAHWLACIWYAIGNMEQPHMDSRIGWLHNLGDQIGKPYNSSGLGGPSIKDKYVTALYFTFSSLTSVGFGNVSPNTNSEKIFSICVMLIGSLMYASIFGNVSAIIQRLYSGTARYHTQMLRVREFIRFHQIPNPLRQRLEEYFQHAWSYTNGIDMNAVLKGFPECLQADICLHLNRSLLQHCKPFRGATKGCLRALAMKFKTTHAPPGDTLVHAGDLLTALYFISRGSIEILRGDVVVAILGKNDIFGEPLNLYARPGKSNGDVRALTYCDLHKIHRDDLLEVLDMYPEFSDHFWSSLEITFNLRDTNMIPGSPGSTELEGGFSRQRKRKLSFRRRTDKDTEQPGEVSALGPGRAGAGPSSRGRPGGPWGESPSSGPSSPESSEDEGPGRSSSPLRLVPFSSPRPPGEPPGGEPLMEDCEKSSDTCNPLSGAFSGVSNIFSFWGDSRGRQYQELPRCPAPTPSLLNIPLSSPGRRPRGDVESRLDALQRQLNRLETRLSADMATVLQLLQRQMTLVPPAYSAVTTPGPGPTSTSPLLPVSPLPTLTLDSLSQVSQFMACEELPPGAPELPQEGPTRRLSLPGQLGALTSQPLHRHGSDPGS
row,SMILES,"hERG current change (%, negative = inhibition) at 1uM [%]"
1,COC(=O)Nc1ccc([N+](=O)[O-])cc1OC,6.79
2,CCCc1nn2c(=O)cc(CSCC(=O)Nc3cccc(OC)c3)nc2s1,14.5
3,CCCCN(CCCC)CCCN1CC(=O)N2[C@@H](Cc3c([nH]c4ccccc34)C2(C)C)C1=O,-42.9
4,Cc1nc(Cl)c(C(=O)Nc2cccc(F)c2)c(C)c1Cl,-4.47
5,N#Cc1c(-c2ccc(F)cc2)c2c([nH]c1=O)-c1ccccc1OC2,14
6,O=C(CNCc1ccccc1Cl)Nc1ccc(C(=O)N2CCCCC2)cc1.O=C(O)C(=O)O,15.5
7,COc1ccc(-c2ncc(CN3CCC(CO)(Cc4cccc(OC)c4)CC3)cn2)cc1,10.4
8,CCc1cc2cc(C)ccc2nc1SCC(=O)NC1CCCC1,-4.96
9,Cc1noc(C(F)(F)F)c1C(=O)NNC(=O)c1ccccc1,15.2
10,O=C(O)CCn1ccc2cc(S(=O)(=O)N3CCCCCC3)ccc21,3.69
11,CCCCC(C(=O)NC1CCCC1)N(C(=O)c1snc(C(N)=O)c1N)c1ccc(C)cc1 (centres unmarked),20.4
12,Cc1cc(C)cc(C(=O)NC(=S)Nc2ccc(-c3cc4ccccc4oc3=O)cc2)c1,8.98
13,CCOC(=O)c1c(C2CC2)csc1NC(=O)COC(=O)c1cc(OC)c(OC)cc1[N+](=O)[O-],15.9
14,CCOC(=O)C1(Cc2cccc(OC)c2)CCN(Cc2cccc3c2OCO3)CC1,-0.93
15,O=C(NCC1CCCO1)c1ccc2c(c1)C(=O)N(c1cccc([N+](=O)[O-])c1)C2=O (centres unmarked),15
16,COc1ccc(NC(=O)Nc2cccs2)cc1OC,12.3
17,COc1ccc(-c2cc(C(=O)NCC(C)C)no2)cc1,-5.29
18,O=C(NCCc1ccccc1)C(=O)NCC1OCCN1S(=O)(=O)c1cc(F)ccc1F (centres unmarked),-2.25
19,Cc1cc(NNC(=O)Nc2cccc(Cl)c2)nc2c1c(C)nn2C,9.23
20,COC(=O)C(NC(=O)c1ccccc1)(Nc1nc(C)cs1)C(F)(F)F (centres unmarked),20.7
21,O=C(/C(=C/c1cccc(Cl)c1)c1nc2ccccc2[nH]1)c1ccccc1,7.65
22,COC(=O)CNC(=O)CN(c1ccc(OC)cc1OC)S(=O)(=O)c1ccccc1,15.7

row,SMILES,"hERG current change (%, negative = inhibition) at 1uM [%]"
1,Cc1nc(NCc2ccco2)nc2c1C(=O)CC(C)C2 (centres unmarked),-1.42
2,COc1cccc(NC(=O)c2cnsn2)c1,6.53
3,Nc1scc[n+]1Cc1cccc2cccnc12.[Br-],4.56
4,C=CCNc1nc2ccccc2nc1NS(=O)(=O)c1ccc(Br)cc1,11
5,Cc1cc(C)cc(Nc2nc3c([nH]2)c(=O)n(C)c(=O)n3C)c1,7.22
6,COc1ccc(C(=O)Nc2cc(C)on2)cc1S(=O)(=O)N1CC(c2ccccc2)CC1=O (centres unmarked),9.79
7,CCOC(=O)c1ccc(NC(=O)CN2CCN(C(=O)C3CCCO3)CC2)cc1 (centres unmarked),15.6
8,CN(Cc1cccc(F)c1)C(=O)c1ccc(NS(=O)(=O)c2ccc3[nH]c(=O)[nH]c3c2)cc1,11.7
9,CO/N=C/C(C(C)=O)C(=O)Nc1ccc(Cl)cc1Cl (centres unmarked),8.8
10,Cc1ccccc1OCCSc1nc(N(C)C)nc(N(C)C)n1,23.2
11,C=CCn1c(O)c(/C=N/N2CCOCC2)c(=O)[nH]c1=S,8.18
12,COCc1nnc(NC(=O)CCCOc2ccccc2OC)s1,16.6
13,Cc1nn2c(-c3ccc(Cl)cc3Cl)nnc2s1,-0.908
14,CC/C(C)=N/Nc1nc2c(c(=O)[nH]c(=O)n2C)n1CCc1ccccc1,23.6
15,COc1ccc(N2CC(C(=O)Nc3nnc(SCc4cccnc4)s3)CC2=O)cc1 (centres unmarked),10.5
16,O=C(O)c1ccc(N=Cc2c(O)n(Cc3ccc(F)cc3)c(=O)[nH]c2=O)cc1,5.7
17,COc1ccc(F)cc1C(=O)C1CCCN(Cc2cnc(N3CCCC3)s2)C1 (centres unmarked),-0.126
18,CC(OC(=O)c1ccc2c(=O)n3c(nc2c1)CCCCC3)C(=O)Nc1ncc(Cl)cc1Cl (centres unmarked),7.83
19,COc1ccc(CNC(=O)CCCSc2ccccc2)cc1,5.45
20,CCS(=O)(=O)CCSC1OC(COC(C)=O)C(OC(C)=O)C(OC(C)=O)C1OC(C)=O (centres unmarked),5.65
21,Cc1ccc2c(c1)C1CN(C)CCC1N2C(=O)Cc1cccs1.Cl (centres unmarked),7.01
22,O=C(C1=C[C@@H](c2ccc(Br)cc2)C[C@@H](OCc2ccc(CO)cc2)O1)N1CCN(Cc2ccc3c(c2)OCO3)CC1,1.73

row,SMILES,"hERG current change (%, negative = inhibition) at 1uM [%]"
1,CCc1cc(C(=O)N2CCc3c([nH]c4ccccc34)C2c2ccc(OC)cc2F)no1 (centres unmarked),17.6
2,CCOC(=O)N1CCN(C(=O)CSc2ccc(-c3ccccc3)nn2)CC1,3.11
3,O=C(O)c1ccc(/C=C(\c2nc3ccccc3[nH]2)c2nc3ccccc3s2)cc1,12.7
4,N#Cc1c(N)n(-c2cccc(C(=O)O)c2)c2nc3ccccc3nc12,7.61
5,Cc1ccc(C)c(NS(=O)(=O)c2cc(C(=O)NCC3CCCO3)ccc2C)c1 (centres unmarked),1.35
6,CC(Cc1cccs1)NC(=O)Nc1ccc([N+](=O)[O-])cc1 (centres unmarked),-6.07
7,CC(=O)c1ccc(NC(=O)C(C)N(C)CC(=O)Nc2ccc(Cl)cc2)cc1 (centres unmarked),2.92
8,CSCCC(NC(=O)c1ccccc1Br)C(=O)N1CCN(C(C)=O)CC1 (centres unmarked),17.3
9,Cc1ccc(S(=O)(=O)N2CCC(NC(=O)C3CCCCC3)CC2)cc1,13.9
10,Cc1cc(-c2c(C)[nH]n(-c3ccc(Cl)cc3)c2=O)n(-c2ccc(Cl)cc2)n1,5.46
11,Cc1ccc(NC(=O)c2ccc3nc(N4CCOCC4)sc3c2)c(Cl)c1,7.79
12,CCc1ccc(CN2CCCC(C(=O)N3CCCCC3)C2)cc1.O=C(O)C(=O)O (centres unmarked),-11.4
13,Cn1nnnc1SCC(=O)N1CCN(c2ccc(Cl)cc2)CC1,-16.2
14,CCN(CC)CCNc1nc(-c2ccc(OC(F)F)cc2)c(C)s1,-31.4
15,CCOc1ccc2[nH]c(=O)c(CN(Cc3nnnn3Cc3ccccc3)CC3CCCO3)cc2c1 (centres unmarked),0.593
16,CCn1c(COc2c(C)cccc2C)nnc1SCc1nc2ccccc2c(=O)[nH]1,7.61
17,O=C(NNC(=S)Nc1cccc2ccccc12)c1cccc(Br)c1,3.48
18,O=[N+]([O-])c1ccc(N2CCN(c3ccccc3)CC2)cc1,9.45
19,Cc1cccc(NC(=S)NC(=O)/C=C/c2ccco2)c1,14.3
20,COc1ccc(NC(=O)Nc2ccon2)cc1OC,-8.08
21,Clc1cccc(Cl)c1OCCOCCNCc1ccccc1.O=C(O)C(=O)O,9.9
22,Cn1c(=O)c2cc(S(=O)(=O)NCCC(=O)NCCC3=CCCCC3)ccc2n(C)c1=O,2.16

row,SMILES,"hERG current change (%, negative = inhibition) at 1uM [%]"
1,OC[C@H]1O[C@@H](n2cnc3c(NC4CCCC4)ncnc32)[C@H](O)[C@@H]1O,10.5
2,Cc1cccc(C(=O)N2N=C(c3ccc(NS(C)(=O)=O)cc3)CC2c2cccs2)c1 (centres unmarked),7.91
3,COc1ccc(-c2cc(-c3ccccc3)n3ncnc3n2)cc1,8.02
4,COCCCn1c(C)nnc1SCC(=O)NNC(=O)COc1ccc(Cl)cc1,11.8
5,Cc1ccc(C2(C)NC(=O)N(CC(=O)NNC(=O)c3ccoc3C)C2=O)cc1 (centres unmarked),19.9
6,CCCC(=O)C1=C(O)C(C(=O)OC)C(C)(C)CC1=Nc1ccc(N)cc1 (centres unmarked),-7.56
7,Cc1ccc(C)c(-n2cc(CN3CCNC(=O)CC3)c(-c3ccccc3)n2)c1,3.8
8,COC(=O)Cn1c(=NC(=O)c2ccc(Cl)s2)sc2cc(C)ccc21,19.2
9,COCC(=O)Nc1ccccc1-c1ccccc1,13.7
10,Cc1ccc(C(=O)NCCCNC(=O)c2ccco2)cn1,6.51
11,COc1ccc(S(=O)(=O)Nc2nc3ccccc3nc2Nc2cccc(C(=O)O)c2)cc1,9.85
12,COc1ccccc1CNC(=O)COC(=O)Cc1c(F)cccc1Cl,9.18
13,COc1cc(/C=C/C(=O)N(C)c2ccccc2C(=O)O)cc(OC)c1OC,5.28
14,CN(CC(=O)NCc1ccccc1)S(=O)(=O)c1cnc[nH]1,15.3
15,CC(C)(C)NC(=O)C1N(c2cccnc2)C(=O)C2C(C(=O)Nc3ccccc3)C3(C)C=CC21O3 (centres unmarked),5.41
16,COc1ccc(S(=O)(=O)Nc2nc3c(s2)CCCC3)cc1,10.1
17,CSc1cccc(NC(=S)N2CCC(N(C)C(C)C)CC2)c1,7.06
18,Cc1ccc(-n2ncc3c(NCc4ccco4)ncnc32)c(C)c1,8.65
19,Cn1cnc([N+](=O)[O-])c1Sc1ccccc1,5.83
20,CCOC(=O)n1c(=O)n(Cc2ccc(F)cc2)c2ccccc21,0.451
